Measurements reported in the supplement of paper PMC4604168 (melanoma cell lines).
This is one part of the list. Repeats are few or missing, and single values can be far off.

What was measured:
Assay in all cases: cell count relative to DMSO control; melanoma cells; higher = more viable cells
Settings in all cases: library dose: standard library concentration; 72 h
[1] = test system: A101D
[2] = test system: A2058
[3] = test system: A375
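Further: cells treated in 1,536-well plates, then fixed and DAPI-stained, with nuclei counted from automated high-throughput microscope images.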

`C[C@]1(O)C[C@@H](c2nc(-c3ccc4ccc(-c5ccccc5)nc4c3)c3c(N)nccn32)C1` + O=C(CCCCCCC(=O)Nc1ccccc1)NO [vorinostat] (first compound 2 µM, partner dose 0.4 µM) gave a cell count [1] of 77.6%, a cell count [2] of 102% and a cell count [3] of 77.7%.
With `COc1cc([C@@H]2c3cc4c(cc3[C@@H](O[C@@H]3O[C@@H]5CO[C@@H](C)O[C@H]5[C@H](O)[C@H]3O)[C@H]3COC(=O)[C@H]23)OCO4)cc(OC)c1O` [etoposide] + CN(c1ncccc1CNc1nc(Nc2ccc3c(c2)CC(=O)N3)ncc1C(F)(F)F)S(C)(=O)=O [PF562271] (first compound 0.1 µM, partner dose 0.4 µM) the cell count [1] was 84.4%, the cell count [2] was 54.6% and the cell count [3] was 60.8%.
Work on `Cn1cnc2c(F)c(Nc3ccc(Br)cc3Cl)c(C(=O)NOCCO)cc21` [selumetinib] + CC(C)(C)c1cnc(CSc2cnc(NC(=O)C3CCNCC3)s2)o1 [SNS-032] (first compound 0.075 µM, partner dose 0.05 µM) yielded a cell count [1] of 65.7%, a cell count [2] of 80% and a cell count [3] of 90.6%.
For `COc1cc([C@@H]2c3cc4c(cc3[C@@H](O[C@@H]3O[C@@H]5CO[C@@H](C)O[C@H]5[C@H](O)[C@H]3O)[C@H]3COC(=O)[C@H]23)OCO4)cc(OC)c1O` [etoposide] + Nc1cccc2c1CN(C1CCC(=O)NC1=O)C2=O [lenalidomide] (first compound 0.1 µM, partner dose 5 µM), the cell count [1] was 81.1%, the cell count [2] was 70.5% and the cell count [3] was 89.6%.
For `COc1cc([C@@H]2c3cc4c(cc3[C@@H](O[C@@H]3O[C@@H]5CO[C@@H](C)O[C@H]5[C@H](O)[C@H]3O)[C@H]3COC(=O)[C@H]23)OCO4)cc(OC)c1O` [etoposide] + Cn1nnc2c(C(N)=O)ncn2c1=O [temozolomide] (first compound 0.1 µM, partner dose 10 µM), the cell count [1] was 95.4%, the cell count [2] was 43.9% and the cell count [3] was 59.7%.
Work on `C[C@]1(O)C[C@@H](c2nc(-c3ccc4ccc(-c5ccccc5)nc4c3)c3c(N)nccn32)C1` + OCc1c[nH]c2ccccc12 [Indole-3-carbinol] (first compound 2 µM, partner dose 4 µM) yielded a cell count [1] of 94.1%, a cell count [2] of 74% and a cell count [3] of 80.1%.
With `CCN(CC)CCNC(=O)c1c(C)[nH]c(/C=C2\C(=O)Nc3ccc(F)cc32)c1C` [sunitinib] + NC(=O)Nc1cc(-c2cccc(F)c2)sc1C(=O)N[C@H]1CCCNC1 [AZD7762] (first compound 2 µM, partner dose 0.1 µM) the cell count [1] was 58.5%, the cell count [2] was 49.2% and the cell count [3] was 54.1%.
With `COc1cc([C@@H]2c3cc4c(cc3[C@@H](O[C@@H]3O[C@@H]5CO[C@@H](C)O[C@H]5[C@H](O)[C@H]3O)[C@H]3COC(=O)[C@H]23)OCO4)cc(OC)c1O` [etoposide] + CC(C)C[C@H](NC(=O)[C@H](Cc1ccccc1)NC(=O)c1cnccn1)B(O)O [Bortezomib] (first compound 0.1 µM, partner dose 0.005 µM) the cell count [1] was 18.7%, the cell count [2] was 12.4% and the cell count [3] was 88.8%.
Compound `CCN(CC)CCNC(=O)c1c(C)[nH]c(/C=C2\C(=O)Nc3ccc(F)cc32)c1C` [sunitinib] + NCC(=O)Nc1ccc(-n2nc(C(F)(F)F)cc2-c2ccc3c(ccc4ccccc43)c2)cc1 [OSU03012] (first compound 2 µM, partner dose 5 µM) has a cell count [1] of 65.9%, a cell count [2] of 66.4% and a cell count [3] of 53.5%.
For `Cn1cnc2c(F)c(Nc3ccc(Br)cc3Cl)c(C(=O)NOCCO)cc21` [selumetinib] + O=C(O)c1ccc2c(c1)nc(Nc1cccc(Cl)c1)c1ccncc12 [CX4945] (first compound 0.075 µM, partner dose 2 µM), the cell count [1] was 70.3%, the cell count [2] was 96.1% and the cell count [3] was 82.5%.
`Cn1cnc2c(F)c(Nc3ccc(Br)cc3Cl)c(C(=O)NOCCO)cc21` [selumetinib] + Cn1sc(=O)n(Cc2ccccc2)c1=O [TDZD-8] (first compound 0.075 µM, partner dose 2 µM) showed a cell count [1] of 75.8%, a cell count [2] of 101% and a cell count [3] of 110%.
`CCN(CC)CCNC(=O)c1c(C)[nH]c(/C=C2\C(=O)Nc3ccc(F)cc32)c1C` [sunitinib] + Cn1c(Nc2ccc(C(F)(F)F)cc2)nc2cc(Oc3ccnc(-c4ncc(C(F)(F)F)[nH]4)c3)ccc21 [CHIR265] (first compound 2 µM, partner dose 0.4 µM) showed a cell count [1] of 48.3%, a cell count [2] of 65.7% and a cell count [3] of 57.1%.
`COc1cc([C@@H]2c3cc4c(cc3[C@@H](O[C@@H]3O[C@@H]5CO[C@@H](C)O[C@H]5[C@H](O)[C@H]3O)[C@H]3COC(=O)[C@H]23)OCO4)cc(OC)c1O` [etoposide] + Cc1cc(N2CCOCC2)cc2[nH]c(-c3c(NC[C@@H](O)c4cccc(Cl)c4)cc[nH]c3=O)nc12 [BMS536924] (first compound 0.1 µM, partner dose 1 µM) gave a cell count [1] of 97.8%, a cell count [2] of 71.2% and a cell count [3] of 81.1%.
With `Cn1cnc2c(F)c(Nc3ccc(Br)cc3Cl)c(C(=O)NOCCO)cc21` [selumetinib] + Cc1ccc(NC(=O)c2cccc(N(C)C)c2)cc1NC(=O)c1ccc(O)cc1 [ZM336372] (first compound 0.075 µM, partner dose 10 µM) the cell count [1] was 63.2%, the cell count [2] was 96.8% and the cell count [3] was 88.6%.
For `CCN(CC)CCNC(=O)c1c(C)[nH]c(/C=C2\C(=O)Nc3ccc(F)cc32)c1C` [sunitinib] + C=C(c1ccc(C(=O)O)cc1)c1cc2c(cc1C)C(C)(C)CCC2(C)C [Bexarotene] (first compound 2 µM, partner dose 10 µM), the cell count [1] was 81.6%, the cell count [2] was 79.1% and the cell count [3] was 122%.
With `C[C@]1(O)C[C@@H](c2nc(-c3ccc4ccc(-c5ccccc5)nc4c3)c3c(N)nccn32)C1` + Cc1nc(Nc2ncc(C(=O)Nc3c(C)cccc3Cl)s2)cc(N2CCN(CCO)CC2)n1 [dasatanib] (first compound 2 µM, partner dose 0.02 µM) the cell count [1] was 78.6%, the cell count [2] was 61.5% and the cell count [3] was 60.5%.
In the case of `C[C@]1(O)C[C@@H](c2nc(-c3ccc4ccc(-c5ccccc5)nc4c3)c3c(N)nccn32)C1` + OCCn1cc(-c2cnc3nnn(Cc4ccc5ncccc5c4)c3n2)cn1 [PF04217903] (first compound 2 µM, partner dose 5 µM), the cell count [1] is reported as 90%, the cell count [2] is reported as 103% and the cell count [3] is reported as 84.4%.
`COc1cc([C@@H]2c3cc4c(cc3[C@@H](O[C@@H]3O[C@@H]5CO[C@@H](C)O[C@H]5[C@H](O)[C@H]3O)[C@H]3COC(=O)[C@H]23)OCO4)cc(OC)c1O` [etoposide] + C=C(c1ccc(C(=O)O)cc1)c1cc2c(cc1C)C(C)(C)CCC2(C)C [Bexarotene] (first compound 0.1 µM, partner dose 10 µM) showed a cell count [1] of 83.5%, a cell count [2] of 83% and a cell count [3] of 67.7%.
`C[C@]1(O)C[C@@H](c2nc(-c3ccc4ccc(-c5ccccc5)nc4c3)c3c(N)nccn32)C1` + CCN(CC)CCNC(=O)c1c(C)[nH]c(/C=C2\C(=O)Nc3ccc(F)cc32)c1C [sunitinib] (first compound 2 µM, partner dose 2 µM) was tested, and the cell count [1] was 69.4%, the cell count [2] was 74% and the cell count [3] was 94.6%.
`C[C@]1(O)C[C@@H](c2nc(-c3ccc4ccc(-c5ccccc5)nc4c3)c3c(N)nccn32)C1` + Cn1cc(/C=C2\C(=O)Nc3cccnc32)c2ccccc21 [GW441756] (first compound 2 µM, partner dose 2 µM) showed a cell count [1] of 90.6%, a cell count [2] of 124% and a cell count [3] of 141%.
Work on `C[C@]1(O)C[C@@H](c2nc(-c3ccc4ccc(-c5ccccc5)nc4c3)c3c(N)nccn32)C1` + CS(=O)(=O)c1ccc(C(=O)Nc2ccc(Cl)c(-c3ccccn3)c2)c(Cl)c1 [vismodegib] (first compound 2 µM, partner dose 5 µM) yielded a cell count [1] of 99.9%, a cell count [2] of 128% and a cell count [3] of 94.5%.
